From the supplement of paper PMC4723716
± gives the uncertainty stated by the source. In all, about 9,900 compounds were measured (“viability index relative to DMSO control”: median about 1, lowest 2% from about 0.85 on). Some of the results follow.

Tested on: Plasmodium falciparum NF54 stage V gametocytes
Assay: viability index relative to DMSO control (fraction); higher = less gametocyte killing
Settings: 2.5 µM, incubation time: 72 h
In short: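 Gametocytes (P. falciparum NF54, stage V) were treated with compound at 2.5 µM for 72 hr at 37°C in low oxygen, in serum-free medium at 0.75% gametocytemia and 1.25% hematocrit. Counts of 20–70 µm2 red particles, taken from one field per well after MitoTracker Red CMXRos with saponin, were divided by the plate mean of solvent-only wells. This ratio is the viability index.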

[1] = library set: Broad Institute DOS

Compound | viability index [1] | viability index (library set: Broad Institute Blood Stage)
COCC(=O)Nc1ccc2c(c1)OC[C@H](C)N(C)C[C@H](C)[C@@H](OC)CN(C)C2=O | 1.04 ± 0.065 | 
COc1ccc2c3c([nH]c2c1)[C@@H](CO)N(Cc1ccccc1Cl)C[C@]31CN(C1)C(=O)C1CC1 | 0.962 ± 0.029 | 
COCCNC(=O)C[C@@H]1CC[C@@H]2[C@H](COC[C@H](O)CN2S(=O)(=O)c2ccccc2F)O1 | 1 ± 0.04 | 
CC(C)NC(=O)N1[C@H](CO)[C@@H]2c3ccccc3NC[C@@H]21 | 1.01 ± 0.045 | 
CN1C(=O)c2cc(NS(C)(=O)=O)ccc2OC[C@H]2O[C@H](CC(=O)N3CCOCC3)CC[C@H]21 | 1.05 ± 0.065 | 
CNC[C@@H]1OCCCC[C@H](C)Oc2ccc(NC(=O)Nc3ccc(OC)cc3)cc2C(=O)N([C@H](C)CO)C[C@H]1C | 1.05 ± 0.029 | 
N#C[C@@H]1[C@H](c2ccc(-c3cccc(F)c3)cc2)[C@H](CO)N1C(=O)CN1CCOCC1 | 1.05 ± 0.025 | 
COc1ccc(-c2ccc3c(c2)[C@@H]2[C@@H](CCN2C(=O)c2cccc(F)c2)[C@@H](CO)N3)cc1 | 0.996 ± 0.08 | 
C[C@@H]1CN([C@@H](C)CO)C(=O)c2cc(N(C)C)ccc2O[C@@H](C)CCCCO[C@@H]1CN(C)C(=O)NC1CCCCC1 | 1.11 ± 0.03 | 
CNC[C@@H]1Oc2cc(C3=CCCC3)ccc2S(=O)(=O)N([C@@H](C)CO)C[C@H]1C | 0.939 ± 0.038 | 
O=C(C[C@@H]1CC[C@@H]2[C@H](COC[C@H](O)CN2CCc2ccccc2)O1)NCCCN1CCOCC1 | 0.996 ± 0.081 | 
C[C@H](O)C#Cc1ccc([C@@H]2[C@@H](CO)N3CCCCN(C(=O)c4ccc5c(c4)OCO5)C[C@H]23)cc1 | 1.04 ± 0.093 | 
O=C(c1ccccc1F)N1CC(=O)N2[C@H](C1)[C@@H](c1ccc(-c3ccc(F)cc3)cc1)[C@@H]2CO |  | 0.86 ± 0.04
CS(=O)(=O)N1CC(=O)N2[C@H](C1)[C@H](c1ccc(Br)cc1)[C@@H]2CO | 0.958 ± 0.022 | 
O=C(NCC[C@@H]1CC[C@H](NS(=O)(=O)c2ccc(F)cc2)[C@H](CO)O1)c1ccc2c(c1)OCO2 | 0.955 ± 0.046 | 
C[C@H](CO)N1C[C@H](C)[C@@H](CN(C)S(=O)(=O)c2cn(C)cn2)OCCCC[C@H](C)Oc2ccc(N(C)C)cc2C1=O | 1.03 ± 0.031 | 
C/C=C/c1ccccc1[C@@H]1[C@@H](CO)N(C(=O)c2cccnc2)[C@H]1C#N | 1.07 ± 0.033 | 
C[C@H](CO)N1C[C@H](C)[C@H](CN(C)C(=O)c2ccc(N3CCN(C)CC3)cc2)OCc2cnnn2CCCC1=O | 1.08 ± 0.067 | 
CO[C@@H]1CC[C@H]2CCN(C)C(=O)[C@H](C)N(C)C(=O)c3cccc(C#N)c3OC[C@@H]1O2 | 1.11 ± 0.083 | 
CN1C(=O)c2cc(NS(=O)(=O)c3ccccc3F)ccc2OC[C@H]2O[C@@H](CC(=O)NC3Cc4ccccc4C3)CC[C@H]21 | 0.976 ± 0.089 | 
